The values below come from PubChem BioAssay (NCI).

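These data come from cells grown in 96-well plates and exposed to compound for 48 hours at five concentrations. The concentration for 50% growth inhibition is given as GI50. TGI: total growth inhibition.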 The source made the active and inactive calls. Cut-off read from the data, not from the text of the source: active = GI50 below about 0.43 µM; inactive = the rest.

The experiment concerns NCI-H322M lung. Kind of experiment: inhibition of tumour cell growth, NCI panel, 48 h.
`COc1cccc(C(=O)c2sc(Nc3ccc(N4CCN(C(C)C)CC4)cc3)nc2N)c1`: the GI50 was 1.85 µM and the TGI was more than 15.9 µM. For `O=C(O)c1ccc(Cc2ccccc2C(=O)O)cc1`, the TGI was more than 100 µM. Same read-out and setting: in the case of `Cc1cc(C(=O)CBr)c(CN2C(=O)c3ccccc3C2=O)c(=O)n1C` it was 84.4 µM; in that of `CCOc1ccc(Nc2nc(C)c(C(=O)/C=C/c3ccc(Cl)cc3Cl)s2)cc1`, more than 100 µM.

For `COc1cc(/C=C2\CN(S(=O)(=O)c3ccc(C)cc3)C/C(=C\c3cc(CN4CCOCC4)c(O)c(OC)c3)C2=O)cc(CN2CCOCC2)c1O`, the GI50 was 6.17 µM and the TGI is more than 100 µM. In turn, `CN(C)c1ccc(C2SCC(=O)N2c2nc3cc4sc(N5C(=O)CSC5c5ccc(N(C)C)cc5)nc4cc3s2)cc1` (stereo not given) had a TGI of more than 100 µM. For the molecule `COC(=O)C1(COCc2ccccc2)CCCC2OC21` (stereo not given), the outcome was inactive. In turn, `O=C(Nc1ccccc1)C(=O)C(C(=O)c1ccccc1F)C1OC(=O)c2ccccc21` (stereo not given) showed a TGI of 75.9 µM. Same read-out and setting: in the case of `COc1ccc(N=NC(=O)NC(CC(C)C)C(=O)NC(Cc2ccccc2)C(=O)O)cc1` (stereo not given) it was more than 100 µM; in that of `Cc1cc(S(=O)(=O)O)ccc1N=Nc1c(O)ccc2ccccc12`, more than 100 µM. With `CS(=O)(=O)Nc1ccc(Nc2c3ccccc3nc3cc([N+](=O)[O-])ccc23)cc1`, the GI50 is 4.39 µM and the TGI came out at 17.7 µM. On to `O=C(Nc1ccc(F)cc1)C(=O)C(C(=O)c1ccccc1F)C1OC(=O)c2ccccc21` (stereo not given), for which the TGI is more than 100 µM.
